Measurements taken from the supplement of paper PMC10369915.
Some of the results follow. Rule as the data show it: active = 3.2 or more and inactive = the rest. Most of these values are background signal.

B1: ANDR_HUMAN_552 (peptide)
chain: DHVLPIDYYFPPQKT
B2: MDM2_HUMAN_281 (peptide)
chain: EVYQVTVYQAGESDT
B3: MET_HUMAN_1230_YA (peptide)
chain: FGLARDMYDKEAASV
B4: MET_HUMAN_1235_YA (peptide)
chain: DMADKEAYSVHNKTG
B5: MET_HUMAN_1356 (peptide)
chain: YVHVNATYVNVKCVA
B6: MIER1_HUMAN_155 (peptide)
chain: IRPRRCKYFDTNSEV
B7: ANK2_HUMAN_1382 (peptide)
chain: VLEGKPIYVDCFGNL
B8: MK09_HUMAN_185 (peptide)
chain: TNFMMTPYVVTRYYR
B9: MK11_HUMAN_323 (peptide)
chain: DEPEAEPYDESVEAK
B10: ANK2_HUMAN_378 (peptide)
chain: VAAHCGHYRVTKLLL
B11: MMP14_HUMAN_399 (peptide)
chain: EASLEPGYPKHIKEL
B12: MPZL1_HUMAN_241 (peptide)
chain: SHQGPVIYAQLDHSG
B13: MRCKB_HUMAN_954 (peptide)
chain: FQDSIFEYFNTAPLA
B14: MUC1_HUMAN_1243 (peptide)
chain: NGGSSLSYTNPAVAA
B15: MYC_HUMAN_74 (peptide)
chain: SGLCSPSYVAVTPFS
B16: MYH4_HUMAN_389 (peptide)
chain: EVADKAAYLTSLNSA
B17: ANLN_HUMAN_671_YA (peptide)
chain: SEDRDLLYSIDAARS
B18: MYLK_HUMAN_231 (peptide)
chain: NQDDVGVYTCLVVNG
B19: MYLK_HUMAN_471 (peptide)
chain: YEDAGSHYLCLLKAR

molecular target: SHP2 C-SH2 domain E139D; experiment: enrichment score (SH2-bound / input frequency) (ratio); bacterial display of known human phosphotyrosine sites (pTyr-Var adds point mutants) read by sequencing; higher = stronger binding; tyrosines were phosphorylated by kinases first; details: peptide library: Human pTyr
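Also: displayed peptides selected on beads carrying the immobilized SH2 domain, with library peptides lacking any tyrosine serving as negative controls.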

Q: B1 was tested. Which enrichment score did it give?
A: Its enrichment score is inactive: 0.916.

Q: B2 was tested. Which enrichment score did it give?
A: Its enrichment score is inactive: 0.95.

Q: How did the enrichment score turn out when B3 was run?
A: Its enrichment score is inactive: 0.589.

Q: B4 was tested. Which enrichment score did it give?
A: Its enrichment score is inactive: 1.04.

Q: How did the enrichment score turn out when B5 was run?
A: The enrichment score was inactive: 2.05.

Q: With B6 as the binder, how does the enrichment score read?
A: The enrichment score was inactive: 0.677.

Q: B7 was tested. Which enrichment score did it give?
A: Its enrichment score is inactive: 1.14.

Q: Which enrichment score does the source give for B8 here?
A: The enrichment score was inactive: 1.7.

Q: Which enrichment score does the source give for B9 here?
A: Its enrichment score is inactive: 1.28.

Q: How did the enrichment score turn out when B10 was run?
A: The enrichment score was inactive: 2.26.

Q: Which enrichment score does the source give for B11 here?
A: Its enrichment score is inactive: 1.26.

Q: How did the enrichment score turn out when B12 was run?
A: The enrichment score was active: 4.5.

Q: B13 was tested. Which enrichment score did it give?
A: The enrichment score was inactive: 0.879.

Q: For B14, which enrichment score is on record?
A: The enrichment score was inactive: 0.786.

Q: How did the enrichment score turn out when B15 was run?
A: The enrichment score was inactive: 1.23.

Q: Which enrichment score does the source give for B16 here?
A: Its enrichment score is inactive: 0.731.

Q: For B17, which enrichment score is on record?
A: The enrichment score was inactive: 0.62.

Q: For B18, which enrichment score is on record?
A: Its enrichment score is inactive: 1.47.

Q: How did the enrichment score turn out when B19 was run?
A: Its enrichment score is inactive: 1.51.

molecular target: SHP2 C-SH2 domain wild-type; experiment: as above; details: peptide library: Human pTyr

Q: How did the enrichment score turn out when B1 was run?
A: The enrichment score was inactive: 0.703.

Q: For B2, which enrichment score is on record?
A: The enrichment score was inactive: 0.815.

Q: Which enrichment score does the source give for B3 here?
A: Its enrichment score is inactive: 0.713.

Q: How did the enrichment score turn out when B4 was run?
A: Its enrichment score is inactive: 0.674.

Q: For B5, which enrichment score is on record?
A: Its enrichment score is inactive: 1.82.

Q: For B6, which enrichment score is on record?
A: Its enrichment score is inactive: 0.809.

Q: Which enrichment score does the source give for B7 here?
A: The enrichment score was inactive: 1.15.

Q: How did the enrichment score turn out when B8 was run?
A: The enrichment score was inactive: 1.29.

Q: For B9, which enrichment score is on record?
A: Its enrichment score is inactive: 1.16.

Q: B10 was tested. Which enrichment score did it give?
A: Its enrichment score is inactive: 2.33.

Q: For B11, which enrichment score is on record?
A: Its enrichment score is inactive: 0.695.

Q: B12 was tested. Which enrichment score did it give?
A: The enrichment score was active: 7.84.

Q: How did the enrichment score turn out when B13 was run?
A: Its enrichment score is inactive: 0.882.

Q: B14 was tested. Which enrichment score did it give?
A: The enrichment score was inactive: 0.629.

Q: B15 was tested. Which enrichment score did it give?
A: The enrichment score was inactive: 0.98.

Q: With B16 as the binder, how does the enrichment score read?
A: The enrichment score was inactive: 0.614.

Q: With B17 as the binder, how does the enrichment score read?
A: The enrichment score was inactive: 0.47.

Q: For B18, which enrichment score is on record?
A: The enrichment score was inactive: 1.28.

Q: For B19, which enrichment score is on record?
A: Its enrichment score is inactive: 1.24.

molecular target: SHP2 N-SH2 domain L43F; experiment: as above; details: peptide library: Human pTyr

Q: Which enrichment score does the source give for B1 here?
A: The enrichment score was inactive: 0.905.

Q: Which enrichment score does the source give for B2 here?
A: Its enrichment score is inactive: 0.772.

Q: B3 was tested. Which enrichment score did it give?
A: Its enrichment score is inactive: 0.627.

Q: How did the enrichment score turn out when B4 was run?
A: The enrichment score was inactive: 0.756.

Q: B5 was tested. Which enrichment score did it give?
A: The enrichment score was inactive: 1.96.

Q: How did the enrichment score turn out when B6 was run?
A: Its enrichment score is inactive: 0.866.

Q: B7 was tested. Which enrichment score did it give?
A: Its enrichment score is inactive: 1.39.

Q: B8 was tested. Which enrichment score did it give?
A: The enrichment score was inactive: 1.41.

Q: B9 was tested. Which enrichment score did it give?
A: Its enrichment score is inactive: 1.24.

Q: For B10, which enrichment score is on record?
A: The enrichment score was inactive: 2.28.

Q: How did the enrichment score turn out when B11 was run?
A: Its enrichment score is inactive: 0.641.

Q: For B12, which enrichment score is on record?
A: The enrichment score was active: 19.

Q: B13 was tested. Which enrichment score did it give?
A: The enrichment score was inactive: 1.07.

Q: B14 was tested. Which enrichment score did it give?
A: The enrichment score was inactive: 0.648.

Q: B15 was tested. Which enrichment score did it give?
A: The enrichment score was inactive: 1.

Q: Which enrichment score does the source give for B16 here?
A: Its enrichment score is inactive: 0.668.

Q: B17 was tested. Which enrichment score did it give?
A: Its enrichment score is inactive: 0.624.

Q: For B18, which enrichment score is on record?
A: The enrichment score was inactive: 1.46.

Q: How did the enrichment score turn out when B19 was run?
A: Its enrichment score is inactive: 1.42.

molecular target: SHP2 N-SH2 domain T42A; experiment: as above; details: peptide library: Human pTyr

Q: With B1 as the binder, how does the enrichment score read?
A: The enrichment score was inactive: 0.804.

Q: Which enrichment score does the source give for B2 here?
A: Its enrichment score is inactive: 0.863.

Q: For B3, which enrichment score is on record?
A: Its enrichment score is inactive: 0.861.

Q: B4 was tested. Which enrichment score did it give?
A: Its enrichment score is inactive: 0.719.

Q: Which enrichment score does the source give for B5 here?
A: The enrichment score was inactive: 1.88.

Q: B6 was tested. Which enrichment score did it give?
A: The enrichment score was inactive: 1.56.

Q: B7 was tested. Which enrichment score did it give?
A: The enrichment score was inactive: 1.52.

Q: B8 was tested. Which enrichment score did it give?
A: The enrichment score was inactive: 0.928.

Q: For B9, which enrichment score is on record?
A: The enrichment score was inactive: 1.31.

Q: B10 was tested. Which enrichment score did it give?
A: Its enrichment score is inactive: 2.51.

Q: For B11, which enrichment score is on record?
A: The enrichment score was inactive: 0.844.

Q: With B12 as the binder, how does the enrichment score read?
A: The enrichment score was active: 17.3.

Q: B13 was tested. Which enrichment score did it give?
A: Its enrichment score is inactive: 0.661.

Q: B14 was tested. Which enrichment score did it give?
A: The enrichment score was inactive: 0.739.

Q: B15 was tested. Which enrichment score did it give?
A: Its enrichment score is inactive: 0.911.

Q: Which enrichment score does the source give for B16 here?
A: Its enrichment score is inactive: 0.66.

Q: With B17 as the binder, how does the enrichment score read?
A: The enrichment score was inactive: 0.558.

Q: Which enrichment score does the source give for B18 here?
A: Its enrichment score is inactive: 1.35.

Q: Which enrichment score does the source give for B19 here?
A: Its enrichment score is inactive: 1.24.

molecular target: SHP2 N-SH2 domain T52S; experiment: as above; details: peptide library: Human pTyr

Q: With B1 as the binder, how does the enrichment score read?
A: Its enrichment score is inactive: 0.834.

Q: For B2, which enrichment score is on record?
A: Its enrichment score is inactive: 0.866.

Q: With B3 as the binder, how does the enrichment score read?
A: Its enrichment score is inactive: 0.625.

Q: How did the enrichment score turn out when B4 was run?
A: Its enrichment score is inactive: 0.724.

Q: With B5 as the binder, how does the enrichment score read?
A: Its enrichment score is inactive: 2.48.

Q: Which enrichment score does the source give for B6 here?
A: Its enrichment score is inactive: 0.93.

Q: For B7, which enrichment score is on record?
A: Its enrichment score is inactive: 1.74.

Q: How did the enrichment score turn out when B8 was run?
A: The enrichment score was inactive: 1.08.

Q: With B9 as the binder, how does the enrichment score read?
A: Its enrichment score is inactive: 1.29.

Q: For B10, which enrichment score is on record?
A: The enrichment score was inactive: 2.65.

Q: How did the enrichment score turn out when B11 was run?
A: Its enrichment score is inactive: 0.959.

Q: For B12, which enrichment score is on record?
A: Its enrichment score is active: 12.

Q: B13 was tested. Which enrichment score did it give?
A: Its enrichment score is inactive: 0.726.

Q: Which enrichment score does the source give for B14 here?
A: The enrichment score was inactive: 0.751.

Q: With B15 as the binder, how does the enrichment score read?
A: The enrichment score was inactive: 1.13.

Q: For B16, which enrichment score is on record?
A: The enrichment score was inactive: 0.618.

Q: For B17, which enrichment score is on record?
A: The enrichment score was inactive: 0.569.

Q: Which enrichment score does the source give for B18 here?
A: The enrichment score was inactive: 1.3.

Q: Which enrichment score does the source give for B19 here?
A: Its enrichment score is inactive: 1.7.

molecular target: SHP2 N-SH2 domain wild-type; experiment: as above; details: peptide library: Human pTyr

Q: How did the enrichment score turn out when B1 was run?
A: The enrichment score was inactive: 0.86.

Q: How did the enrichment score turn out when B2 was run?
A: Its enrichment score is inactive: 0.849.

Q: B3 was tested. Which enrichment score did it give?
A: The enrichment score was inactive: 0.85.

Q: B4 was tested. Which enrichment score did it give?
A: Its enrichment score is inactive: 0.711.

Q: For B5, which enrichment score is on record?
A: Its enrichment score is inactive: 2.3.

Q: B6 was tested. Which enrichment score did it give?
A: The enrichment score was inactive: 1.05.

Q: B7 was tested. Which enrichment score did it give?
A: Its enrichment score is inactive: 1.16.

Q: Which enrichment score does the source give for B8 here?
A: Its enrichment score is inactive: 1.51.

Q: With B9 as the binder, how does the enrichment score read?
A: Its enrichment score is inactive: 1.09.

Q: For B10, which enrichment score is on record?
A: Its enrichment score is inactive: 3.04.

Q: B11 was tested. Which enrichment score did it give?
A: The enrichment score was inactive: 0.879.

Q: With B12 as the binder, how does the enrichment score read?
A: Its enrichment score is active: 5.11.

Q: Which enrichment score does the source give for B13 here?
A: Its enrichment score is inactive: 0.935.

Q: Which enrichment score does the source give for B14 here?
A: Its enrichment score is inactive: 0.682.

Q: With B15 as the binder, how does the enrichment score read?
A: Its enrichment score is inactive: 1.2.

Q: How did the enrichment score turn out when B16 was run?
A: Its enrichment score is inactive: 0.548.

Q: How did the enrichment score turn out when B17 was run?
A: The enrichment score was inactive: 0.517.

Q: B18 was tested. Which enrichment score did it give?
A: Its enrichment score is inactive: 1.24.

Q: B19 was tested. Which enrichment score did it give?
A: Its enrichment score is inactive: 2.17.
